Experimental data taken from the supplement of paper PMC3334620.
Over roughly 33,000 sequences, “E-score (-0.5 to 0.5)” has its median near -0.035; the highest 2% begin near 0.34. The list shows a part of the results.

biological target: T1, Mot3 (UniProt P54785); assay: PBM E-score (8-mer binding enrichment) (E-score (-0.5 to 0.5)); higher = stronger / more preferred TF binding; most listed sequences are background and not binding sites; conditions: protein concentration: 200 nM; construct: GST-full length
T1 sequence: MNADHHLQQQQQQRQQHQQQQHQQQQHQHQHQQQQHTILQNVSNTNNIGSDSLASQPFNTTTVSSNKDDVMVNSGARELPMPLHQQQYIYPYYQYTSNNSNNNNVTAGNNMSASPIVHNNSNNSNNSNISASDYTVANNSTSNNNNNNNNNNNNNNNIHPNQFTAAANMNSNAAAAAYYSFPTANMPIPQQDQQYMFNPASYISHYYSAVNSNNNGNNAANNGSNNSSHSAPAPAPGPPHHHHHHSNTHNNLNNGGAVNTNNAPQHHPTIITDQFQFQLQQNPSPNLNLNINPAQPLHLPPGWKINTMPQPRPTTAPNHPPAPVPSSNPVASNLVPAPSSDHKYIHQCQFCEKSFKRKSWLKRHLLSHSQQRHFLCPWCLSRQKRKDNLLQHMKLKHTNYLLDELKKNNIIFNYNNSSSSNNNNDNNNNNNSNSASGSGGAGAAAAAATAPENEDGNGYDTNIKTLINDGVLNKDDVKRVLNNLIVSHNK
Method: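 Universal 'all 10-mer' protein binding microarrays (Agilent AMADID 015681) probed with GST-tagged S. cerevisiae TFs (full-length or DBD) made by in vitro transcription/translation (PURExpress), about 100-200 nM. Bound TF was detected with fluorescent anti-GST. Each ungapped 8-mer (which stands for itself and its reverse complement) is scored by the PBM enrichment score (E-score), a modified Wilcoxon-Mann-Whitney statistic from -0.5 to +0.5, computed with the Universal PBM Analysis Suite. Scale: above 0.35 generally sequence-specific binding.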

Row | Sequence | PBM E-score
1 | GGCTCGCA | -0.0707
2 | GATGCGAA | -0.142
3 | ATGTATCC | 0.19
4 | GCACAATA | 0.0637
5 | ATTGGAAG | 0.0857
6 | ACCTAAGA | 0.212
7 | CCGATTTA | -0.165
8 | AGGAATAA | 0.105
9 | ACAAATCT | 0.103
10 | ATACCATG | -0.0209
11 | CAAGACTG | 0.0139
12 | GATCAAGC | 0.0595
13 | AGGGGTGG | -0.248
14 | CGCCTGGC | -0.0806
15 | ACAAGACG | 0.0472
16 | GAGCACCA | -0.243
17 | CACACGTG | 0.256
18 | CCGCCAAG | -0.196
19 | CATCCGTA | -0.0281
20 | AGTAAGGG | -0.148
21 | ATCTAGTG | -0.145
22 | TGTCGAAA | 0.216
23 | CGACTTAA | 0.0339
24 | CGAACTGC | -0.178
25 | CTCCTGCC | -0.111

Row | Sequence | PBM E-score
26 | GGCAATAA | 0.227
27 | AGAAACTG | -0.103
28 | GGAAAGCA | 0.175
29 | CTGGTGAC | -0.265
30 | CAGATTGA | 0.0135
31 | CAATAGTG | -0.0795
32 | GGTGGAGA | -0.275
33 | CCAACATC | 0.0605
34 | CTACACCA | 0.118
35 | ATTCACCA | -0.00515
36 | CTTGTACA | 0.325
37 | ACACGTCT | 0.286
38 | AAACGAGC | 0.1
39 | AATCTAAG | -0.0411
40 | TCTTGGCA | -0.0135
41 | AGTTTAAT | 0.0624
42 | CCTGAGCC | -0.0612
43 | ACATGGTC | 0.207
44 | AAACCGCT | -0.106
45 | GAAGAGTA | 0.109
46 | AACGACAG | -0.00709
47 | GACGCCAA | -0.106
48 | AAATAGAG | 0.103
49 | CCAAGCTA | -0.132
50 | CGGGAACA | 0.147

Row | Sequence | PBM E-score
51 | ACCAAGCC | 0.0544
52 | AGTTGTGG | 0.0483
53 | AAGGCTAC | 0.234
54 | CGTTCTGC | -0.0722
55 | ACGTGTGG | 0.0951
56 | CTCGGCAC | -0.181
57 | TAGCCGGA | -0.292
58 | GGGCAAAC | 0.0101
59 | CCCAGAAA | 0.0712
60 | TCATACCA | -0.0345
61 | ACAGGATA | 0.153
62 | AGATTGAA | 0.0943
63 | TCTCCGAA | -0.0332
64 | AACATACC | 0.255
65 | ATACCTCC | -0.153
66 | ACGCTCCA | 0.0237
67 | CCCGCCCG | -0.0534
68 | ACCTCCCC | -0.0577
69 | GCGGTAAA | 0.135
70 | GATATCAA | -0.00647
71 | GAACTGCA | -0.0979
72 | GACTCCAA | -0.159
73 | TGTGGCAA | -0.0312
74 | CATGGGAG | -0.0675
75 | CAAGACTA | -0.0102

Row | Sequence | PBM E-score
76 | ACACTGAA | 0.225
77 | GCGACAAA | -0.122
78 | ATCTCAAA | 0.0373
79 | CAGACTTA | 0.0452
80 | CCTGACCA | 0.028
81 | GCTACAGA | -0.162
82 | CGCGGTAG | -0.00299
83 | ATAACAAC | 0.216
84 | ATATTAAC | 0.183
85 | GCTCGTTA | 0.0557
86 | CCTAACTC | -0.044
87 | CAAACGTC | -0.108
88 | GCATACCC | -0.117
89 | CTCTGCCA | -0.141
90 | CTCGGACA | -0.164
91 | ATTGTCTA | 0.224
92 | ATCTGATA | -0.17
93 | GCAATCGC | -0.184
94 | CTAATTGA | 0.0597
95 | CCACAATA | -0.0891
96 | AATGGCTC | -0.0767
97 | CGTAGGCA | 0.487
98 | CTCGGCCC | -0.261
99 | ACTCACAG | 0.012
100 | CTCCGATC | -0.0283

Row | Sequence | PBM E-score
101 | AGGAATAG | 0.0238
102 | AATCTCCG | -0.173
103 | TGCCTGAA | 0.48
104 | GAGGCATA | -0.154
105 | CATTTCAA | 0.111
106 | GCTGGAAA | -0.0822
107 | AGCATTAC | 0.225
108 | GAAGGTGA | -0.132
109 | ACTACTGA | -0.0886
110 | GGGATGAA | -0.203
111 | AAAACTTC | 0.00572
112 | AGTGCTTC | -0.0636
113 | ACTGCCGG | -0.26
114 | AAAGTATC | 0.103
115 | ATAAACCA | -0.0231
116 | ATCGCCTC | -0.178
117 | AGACGTAG | -0.0302
118 | ATGGACGC | -0.131
119 | AGTAACAT | 0.263
120 | GGGATCCC | -0.297
121 | CAGTCTCA | -0.0239
122 | ATGCCAGC | -0.18
123 | AGCATGAT | -0.0258
124 | GATCCTCA | -0.027
125 | AGGGCACA | 0.3

Row | Sequence | PBM E-score
126 | AAACGATC | -0.0558
127 | CGGCCTCC | -0.122
128 | GAATAGGC | 0.19
129 | AGCTGACC | -0.253
130 | CGCGAACG | -0.179
131 | AAGGCCGA | -0.184
132 | ACCTACGC | 0.0391
133 | ATTCGAGA | -0.0274
134 | AAGGTATG | 0.0554
135 | ACTTGTGA | 0.097
136 | AACACAAG | 0.262
137 | AGAAAGCA | 0.103
138 | TGAAAACA | 0.238
139 | ACCCACCC | -0.0653
140 | GGTAGTAC | -0.0492
141 | GACATCAA | -0.0384
142 | CTCCCGCA | -0.145
143 | CTCTCGGC | -0.216
144 | AAGTGGGA | -0.105
145 | AGCTAGCC | -0.214
146 | CCTCAACC | -0.15
147 | ACTCCGTC | -0.118
148 | GCCCGAAC | -0.219
149 | AGTCCCTC | -0.327
150 | GGAAGGAA | 0.384

Row | Sequence | PBM E-score
151 | ACCGTACT | -0.102
152 | AATCCTCT | -0.0389
153 | CACTTCAG | -0.13
154 | ACACTTAT | 0.05
155 | CTGACCCC | -0.299
156 | ACCGTTGA | -0.257
157 | ATCTATAC | 0.0171
158 | CCACTCCC | -0.375
159 | CGGCTTGC | 0.131
160 | AACACAGC | 0.268
161 | CTCAACAC | 0.292
162 | GGTTGGGA | -0.237
163 | CAGGCGGC | -0.0706
164 | CATATCGA | -0.0609
165 | ATACCGCA | -0.142
166 | CTGGTCCA | -0.209
167 | CCTGTGCC | 0.361
168 | GATAGCGA | -0.243
169 | CCAGCTAG | -0.0732
170 | AGAAGAAG | -0.0319
171 | CTCAGGCA | 0.462
172 | ATACGCGA | 0.284
173 | CAGTCTCG | -0.328
174 | CTCTACTA | 0.069
175 | ATACAGGG | 0.0916

Row | Sequence | PBM E-score
176 | GTTGGCGA | -0.149
177 | CCGGATCA | 0.0643
178 | AATACGAT | 0.158
179 | CCGATGCA | -0.177
180 | GTACTAGA | 0.125
181 | AAGCCTGA | -0.142
182 | ACTTAGTA | -0.0217
183 | GAACCTAC | 0.213
184 | ACATCGGG | -0.13
185 | ACTTACAG | 0.104
186 | CGCGGTCA | -0.223
187 | GGTGCCCA | 0.293
188 | ATCAACGC | 0.194
189 | AGTACGTG | 0.0527
190 | ATACAGAG | -0.0429
191 | GCCGCAAC | -0.095
192 | CTTGCAAC | 0.162
193 | AAAATCCC | -0.0307
194 | GCTGACAA | 0.04
195 | ATAGCTGC | 0.066
196 | GCGGGCAA | 0.00608
197 | AATTCGCC | -0.0364
198 | CCCAACTA | -0.0155
199 | CCCGAGAG | -0.295
200 | CTACGTGA | 0.173

Row | Sequence | PBM E-score
201 | GGTTGGCA | -0.0888
202 | CTAAGTCA | -0.129
203 | CATTCGTC | -0.119
204 | AGCGCTAC | -0.105
205 | CTGCCATA | -0.015
206 | AAAGAGGG | -0.153
207 | AATCTTAG | -0.0748
208 | AGTGTTAT | 0.143
209 | ATTTGCGC | -0.0706
210 | GATCCCAC | -0.211
211 | GTAGATGA | 0.0841
212 | GGCGAAAC | -0.117
213 | TGGATCCA | 0.0475
214 | CCCATCTA | -0.135
215 | ACACCATA | 0.0856
216 | ACTACGTA | 0.162
217 | ATGATCCA | -0.249
218 | TAACCATA | 0.0618
219 | AATCTAAC | 0.108
